Reference: paper PMC12820563
Some of the results follow. The list includes weakly bound sequences.

Each sequence was assayed against T1, MBP-FoxP3dN (UniProt Q99JB6) (assay: PD-seq (MBP pull-down with sequencing)). Conditions: 20 mM Tris-HCl pH 7.5, 100 mM NaCl, 1.5 mM MgCl2, 0.4 uM protein, 0.1 uM dsDNA library, 30 min, room temperature, amylose pull-down; high values mean tight binding; double strand, one strand shown.
T1 sequence: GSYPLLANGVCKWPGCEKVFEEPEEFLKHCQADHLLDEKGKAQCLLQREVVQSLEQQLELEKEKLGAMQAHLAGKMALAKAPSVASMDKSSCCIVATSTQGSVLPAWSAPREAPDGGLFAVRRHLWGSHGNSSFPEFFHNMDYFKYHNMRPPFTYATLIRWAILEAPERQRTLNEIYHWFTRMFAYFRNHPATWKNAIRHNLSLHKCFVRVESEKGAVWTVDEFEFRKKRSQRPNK
In the case of “GATGATTGTTCTCCCAGCTGATGAATTGATCTAATCGAGTAAACAAATTTTCCTAATCTTTCTGTTCAAGCGCCATCTAC”, the binding signal (RPM ratio (pull-down/input)) was 0.356.
“GATGATTGTTCTCCCAGCTGATGAATTTCCTCTGTCGAGTAAACAAATTTTCCTAATCTTTCTGTTCAAGCGCCATCTAC” gave a binding signal (RPM ratio (pull-down/input)) of 0.238.
In the case of “GATGATTGTTCTCCCAGCTGATGAATTTGACGCTTCGAGTAAACAAATTTTCCTAATCTTTCTGTTCAAGCGCCATCTAC”, the binding signal (RPM ratio (pull-down/input)) was 0.832.
“GATGATTGTTCTCCCAGCTGATGAATTTCAACGATCGAGTAAACAAATTTTCCTAATCTTTCTGTTCAAGCGCCATCTAC” was tested, and the binding signal (RPM ratio (pull-down/input)) was 0.284.
“GATGATTGTTCTCCCAGCTGATGAATTCAACTCTTCGAGTAAACAAATTTTCCTAATCTTTCTGTTCAAGCGCCATCTAC” showed a binding signal (RPM ratio (pull-down/input)) of 0.347.
“GATGATTGTTCTCCCAGCTGATGAATTTGCCCGTTCGAGTAAACAAATTTTCCTAATCTTTCTGTTCAAGCGCCATCTAC” was tested, and the binding signal (RPM ratio (pull-down/input)) was 0.401.
Sequence “GATGATTGTTCTCCCAGCTGATGAATTGCTCCCGTCGAGTAAACAAATTTTCCTAATCTTTCTGTTCAAGCGCCATCTAC” has a binding signal (RPM ratio (pull-down/input)) of 0.384.
For “GATGATTGTTCTCCCAGCTGATGAATTGATCTGGTCGAGTAAACAAATTTTCCTAATCTTTCTGTTCAAGCGCCATCTAC”, the binding signal (RPM ratio (pull-down/input)) was 0.213.
“GATGATTGTTCTCCCAGCTGATGAATTCCGAACATCGAGTAAACAAATTTTCCTAATCTTTCTGTTCAAGCGCCATCTAC” showed a binding signal (RPM ratio (pull-down/input)) of 0.379.
In the case of “GATGATTGTTCTCCCAGCTGATGAATTATTTTTATCGAGTAAACAAATTTTCCTAATCTTTCTGTTCAAGCGCCATCTAC”, the binding signal (RPM ratio (pull-down/input)) was 0.78.
“GATGATTGTTCTCCCAGCTGATGAATTAAATCTGTCGAGTAAACAAATTTTCCTAATCTTTCTGTTCAAGCGCCATCTAC” showed a binding signal (RPM ratio (pull-down/input)) of 0.199.
For “GATGATTGTTCTCCCAGCTGATGAATTCTCCTGATCGAGTAAACAAATTTTCCTAATCTTTCTGTTCAAGCGCCATCTAC”, the binding signal (RPM ratio (pull-down/input)) was 0.173.
For “GATGATTGTTCTCCCAGCTGATGAATTCAAAGACTCGAGTAAACAAATTTTCCTAATCTTTCTGTTCAAGCGCCATCTAC”, the binding signal (RPM ratio (pull-down/input)) was 0.199.
With “GATGATTGTTCTCCCAGCTGATGAATTTCCAAGATCGAGTAAACAAATTTTCCTAATCTTTCTGTTCAAGCGCCATCTAC” the binding signal (RPM ratio (pull-down/input)) was 0.153.
“GATGATTGTTCTCCCAGCTGATGAATTCGCATTGTCGAGTAAACAAATTTTCCTAATCTTTCTGTTCAAGCGCCATCTAC” gave a binding signal (RPM ratio (pull-down/input)) of 3.91.
Work on “GATGATTGTTCTCCCAGCTGATGAATTATGATACTCGAGTAAACAAATTTTCCTAATCTTTCTGTTCAAGCGCCATCTAC” yielded a binding signal (RPM ratio (pull-down/input)) of 1.28.
For “GATGATTGTTCTCCCAGCTGATGAATTGTATGCTTCGAGTAAACAAATTTTCCTAATCTTTCTGTTCAAGCGCCATCTAC”, the binding signal (RPM ratio (pull-down/input)) was 2.53.
“GATGATTGTTCTCCCAGCTGATGAATTTGAGCCATCGAGTAAACAAATTTTCCTAATCTTTCTGTTCAAGCGCCATCTAC” was tested, and the binding signal (RPM ratio (pull-down/input)) was 1.25.
“GATGATTGTTCTCCCAGCTGATGAATTTTCGGATTCGAGTAAACAAATTTTCCTAATCTTTCTGTTCAAGCGCCATCTAC” was tested, and the binding signal (RPM ratio (pull-down/input)) was 0.274.
Sequence “GATGATTGTTCTCCCAGCTGATGAATTGATGGAGTCGAGTAAACAAATTTTCCTAATCTTTCTGTTCAAGCGCCATCTAC” has a binding signal (RPM ratio (pull-down/input)) of 0.352.
Work on “GATGATTGTTCTCCCAGCTGATGAATTGGGATACTCGAGTAAACAAATTTTCCTAATCTTTCTGTTCAAGCGCCATCTAC” yielded a binding signal (RPM ratio (pull-down/input)) of 0.733.
In the case of “GATGATTGTTCTCCCAGCTGATGAATTGCGAATTTCGAGTAAACAAATTTTCCTAATCTTTCTGTTCAAGCGCCATCTAC”, the binding signal (RPM ratio (pull-down/input)) was 2.18.
Sequence “GATGATTGTTCTCCCAGCTGATGAATTTACGCAGTCGAGTAAACAAATTTTCCTAATCTTTCTGTTCAAGCGCCATCTAC” has a binding signal (RPM ratio (pull-down/input)) of 0.602.
For “GATGATTGTTCTCCCAGCTGATGAATTGGGACCGTCGAGTAAACAAATTTTCCTAATCTTTCTGTTCAAGCGCCATCTAC”, the binding signal (RPM ratio (pull-down/input)) was 0.37.
Work on “GATGATTGTTCTCCCAGCTGATGAATTGTTTAAATCGAGTAAACAAATTTTCCTAATCTTTCTGTTCAAGCGCCATCTAC” yielded a binding signal (RPM ratio (pull-down/input)) of 0.701.
In the case of “GATGATTGTTCTCCCAGCTGATGAATTGACACGTTCGAGTAAACAAATTTTCCTAATCTTTCTGTTCAAGCGCCATCTAC”, the binding signal (RPM ratio (pull-down/input)) was 0.479.
“GATGATTGTTCTCCCAGCTGATGAATTCTGATCTTCGAGTAAACAAATTTTCCTAATCTTTCTGTTCAAGCGCCATCTAC” gave a binding signal (RPM ratio (pull-down/input)) of 0.364.
With “GATGATTGTTCTCCCAGCTGATGAATTTCGCGGTTCGAGTAAACAAATTTTCCTAATCTTTCTGTTCAAGCGCCATCTAC” the binding signal (RPM ratio (pull-down/input)) was 0.598.
“GATGATTGTTCTCCCAGCTGATGAATTAGACATGTCGAGTAAACAAATTTTCCTAATCTTTCTGTTCAAGCGCCATCTAC” was tested, and the binding signal (RPM ratio (pull-down/input)) was 0.581.
In the case of “GATGATTGTTCTCCCAGCTGATGAATTCATGTGTTCGAGTAAACAAATTTTCCTAATCTTTCTGTTCAAGCGCCATCTAC”, the binding signal (RPM ratio (pull-down/input)) was 1.39.
In the case of “GATGATTGTTCTCCCAGCTGATGAATTAACAAAGTCGAGTAAACAAATTTTCCTAATCTTTCTGTTCAAGCGCCATCTAC”, the binding signal (RPM ratio (pull-down/input)) was 0.297.
“GATGATTGTTCTCCCAGCTGATGAATTCCTCGGGTCGAGTAAACAAATTTTCCTAATCTTTCTGTTCAAGCGCCATCTAC” was tested, and the binding signal (RPM ratio (pull-down/input)) was 0.175.
For “GATGATTGTTCTCCCAGCTGATGAATTTAAGAAGTCGAGTAAACAAATTTTCCTAATCTTTCTGTTCAAGCGCCATCTAC”, the binding signal (RPM ratio (pull-down/input)) was 0.198.
Work on “GATGATTGTTCTCCCAGCTGATGAATTAATTTCATCGAGTAAACAAATTTTCCTAATCTTTCTGTTCAAGCGCCATCTAC” yielded a binding signal (RPM ratio (pull-down/input)) of 0.499.
In the case of “GATGATTGTTCTCCCAGCTGATGAATTGGGGGGCTCGAGTAAACAAATTTTCCTAATCTTTCTGTTCAAGCGCCATCTAC”, the binding signal (RPM ratio (pull-down/input)) was 0.477.
Work on “GATGATTGTTCTCCCAGCTGATGAATTCGCTTTCTCGAGTAAACAAATTTTCCTAATCTTTCTGTTCAAGCGCCATCTAC” yielded a binding signal (RPM ratio (pull-down/input)) of 2.03.
“GATGATTGTTCTCCCAGCTGATGAATTCTGTTTCTCGAGTAAACAAATTTTCCTAATCTTTCTGTTCAAGCGCCATCTAC” gave a binding signal (RPM ratio (pull-down/input)) of 3.
In the case of “GATGATTGTTCTCCCAGCTGATGAATTAAGGAGGTCGAGTAAACAAATTTTCCTAATCTTTCTGTTCAAGCGCCATCTAC”, the binding signal (RPM ratio (pull-down/input)) was 0.2.
Sequence “GATGATTGTTCTCCCAGCTGATGAATTAGCTTGTTCGAGTAAACAAATTTTCCTAATCTTTCTGTTCAAGCGCCATCTAC” has a binding signal (RPM ratio (pull-down/input)) of 3.92.
Work on “GATGATTGTTCTCCCAGCTGATGAATTTGAGCTGTCGAGTAAACAAATTTTCCTAATCTTTCTGTTCAAGCGCCATCTAC” yielded a binding signal (RPM ratio (pull-down/input)) of 0.387.
